Molecules are shown by their SMILES. The whole screen tested about 310,000 compounds, of which about 2,200 (0.71%) showed an effect of 50% or more. The effect is printed as a negative number. Some of the results follow.

The target of the assay is human ether-à-go-go-related gene (hERG) potassium channel (human, UniProt Q12809). Put plainly: primary screen, population patch clamp on CHO cells stably expressing hERG.
Sequence of human ether-à-go-go-related gene (hERG) potassium channel (Q12809 whole entry, looked up): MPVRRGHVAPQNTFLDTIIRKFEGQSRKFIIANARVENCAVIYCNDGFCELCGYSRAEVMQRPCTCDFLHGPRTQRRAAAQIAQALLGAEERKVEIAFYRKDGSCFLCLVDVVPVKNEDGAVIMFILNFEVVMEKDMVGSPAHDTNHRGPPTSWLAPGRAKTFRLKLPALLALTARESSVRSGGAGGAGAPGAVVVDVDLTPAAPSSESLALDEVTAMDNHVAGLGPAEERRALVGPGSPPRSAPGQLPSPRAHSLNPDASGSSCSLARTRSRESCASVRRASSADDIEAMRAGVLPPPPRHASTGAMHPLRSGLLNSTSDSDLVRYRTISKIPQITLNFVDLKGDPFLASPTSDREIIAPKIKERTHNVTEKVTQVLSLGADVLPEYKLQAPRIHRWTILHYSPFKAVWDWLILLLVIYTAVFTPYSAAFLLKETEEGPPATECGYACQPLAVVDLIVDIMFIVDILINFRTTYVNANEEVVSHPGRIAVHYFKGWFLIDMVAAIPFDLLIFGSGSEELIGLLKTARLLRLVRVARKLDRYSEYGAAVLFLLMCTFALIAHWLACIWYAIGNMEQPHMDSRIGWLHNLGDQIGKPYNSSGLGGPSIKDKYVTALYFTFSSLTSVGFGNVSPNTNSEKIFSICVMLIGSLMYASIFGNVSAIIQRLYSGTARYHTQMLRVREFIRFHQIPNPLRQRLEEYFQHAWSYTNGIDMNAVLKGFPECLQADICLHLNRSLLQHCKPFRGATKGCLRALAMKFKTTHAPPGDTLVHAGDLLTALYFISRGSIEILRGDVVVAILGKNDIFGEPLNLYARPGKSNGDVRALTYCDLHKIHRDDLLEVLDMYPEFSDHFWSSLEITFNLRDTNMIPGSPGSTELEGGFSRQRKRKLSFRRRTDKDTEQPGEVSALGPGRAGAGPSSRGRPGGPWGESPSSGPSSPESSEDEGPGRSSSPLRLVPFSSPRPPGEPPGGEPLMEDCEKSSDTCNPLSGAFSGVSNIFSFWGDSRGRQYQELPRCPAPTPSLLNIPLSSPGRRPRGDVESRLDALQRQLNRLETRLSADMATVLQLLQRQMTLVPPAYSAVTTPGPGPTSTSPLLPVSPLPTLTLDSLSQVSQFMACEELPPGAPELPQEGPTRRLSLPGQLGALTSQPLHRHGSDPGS
For `COc1ccc(S(=O)(=O)N2CCC(C(=O)NCC(c3cccs3)N(C)C)CC2)cc1` (stereo not drawn), the “hERG current change (%, negative = inhibition) at 1uM” value is reported as -0.883%.
For the compound `CCCCc1ncc(CN2CCC(n3nccc3NC(=O)c3ccccc3Cl)CC2)[nH]1`, the “hERG current change (%, negative = inhibition) at 1uM” value came out at 5.37%.
The figure for `COCC(=O)Nc1nc(-c2ccc(-c3ccccc3)cc2)cs1` is 15.1%; for `CC(C)(C)n1cc(S(=O)(=O)c2ccccc2)[nH]c1=O` it is 14.3%; for `COc1ccc([N+](=O)[O-])cc1N(CC(O)CN1CCOCC1)S(=O)(=O)c1ccccc1` (stereo not drawn) it is 16.2%.
The same measure for `COc1ccc(C2CC(c3cccs3)=Nc3ccccc3S2)cc1OC` (stereo not drawn): 6.82%; for `Cl.OC(c1ccc(F)cc1)C(c1ccccc1)N1CCOCC1` (stereo not drawn): 11.4%; for `COC(=O)c1oc2ccc(Br)cc2c1NC(C)=O`: 15.2%.
The figure for `N#Cc1cc2c([nH]c1=S)CCCCCC2` is 14.1%; for `COc1ccc(N2C(=O)C3C(c4ccc(OC)cc4O)NC(Cc4ccccc4)(C(=O)O)C3C2=O)cc1` (stereo not drawn) it is 6.55%.
On to `N#Cc1c(N2CCOCC2)nsc1-c1ccc(C(F)(F)F)cc1`, for which the “hERG current change (%, negative = inhibition) at 1uM” value was found to be 7.94%.
The figure for `O=C(CSc1nc(C2CC2)n(-c2ccccc2)n1)NCc1ccco1` is -3.27%; for `COc1ccc(OC)c(NC(=O)CCNS(=O)(=O)c2cccs2)c1` it is 9.2%.
The figure for `Cc1cccc(C(C)C)c1NC(=O)CN1C(=O)NC2(CCc3ccccc32)C1=O` (stereo not drawn) is 21.1%; for `Cc1ccc(S(=O)(=O)n2cc(-c3ccccc3)c3ccccc32)cc1` it is 21.7%; for `Cc1ccccc1NCC(=O)Nc1cc(S(=O)(=O)N2CCCCC2)ccc1C` it is 6.71%.
The same measure for `Cc1cnc(C(=O)N2CCN(S(=O)(=O)c3ccc4ccccc4c3)CC2)cn1`: 12.3%; for `C=CCn1c2ccccc2c(=O)c2cc(C#Cc3ccccn3)ccc21`: 5.13%.
On to `O=c1nc(Nc2ccccc2)sc2ccc([N+](=O)[O-])cc12`, for which the “hERG current change (%, negative = inhibition) at 1uM” value was 4.43%.
The same measure for `CC(C)(C)c1ccc(C(=O)NCCCNC(=O)c2cccnc2)cc1`: 15.2%; for `CCOc1ccc(CC(=O)NNC(=O)/C=C/C(=O)O)cc1`: 10.1%; for `C[C@H](NC(=O)OCc1ccccc1)c1nnc([C@H](C)NC(=O)OCc2ccccc2)o1`: -3.77%.
The same measure for `COC(=O)CN(n1cnnc1)S(=O)(=O)c1ccccc1Cl`: -3.69%; for `COc1ccccc1C(CNC(=O)CNC(=O)c1ccc(C)c(C)c1)N1CCCC1` (stereo not drawn): 10.1%.
